Test results as given in PubChem BioAssay AID504332 (National Center for Advancing Translational Sciences (NCATS), 2011).
Several values for one entry are separate records, joined by “and”; a condition that tells them apart may be missing. Identical values can stand only once. About 31,000 (8.9%) of roughly 350,000 compounds were called active. The shares of active, inactive and inconclusive entries below differ from those in the screen. Calls come from the whole dose curve; as a rule, active = well fitted inhibition curve with a large enough effect; inconclusive = small, poorly fitted or top-dose-only effect; inactive = no such curve, though single readings can be large or run the other way. Potencies beside an inconclusive call are fits to weak or partial responses and may not hold up. More than one record can exist for a structure, and the calls need not agree.

Each compound was assayed against Histone-lysine N-methyltransferase EHMT2 (Homo sapiens) (UniProt Q96KQ7) (assay: qHTS Assay for Inhibitors of Histone Lysine Methyltransferase G9a). Conditions: G9a H3K9 monomethylation, AlphaScreen, 2 h; activity, negative = inhibition: at 59 µM (top of the series) unless noted.
UniProt Q96KQ7, sequence (Q96KQ7 whole entry, looked up): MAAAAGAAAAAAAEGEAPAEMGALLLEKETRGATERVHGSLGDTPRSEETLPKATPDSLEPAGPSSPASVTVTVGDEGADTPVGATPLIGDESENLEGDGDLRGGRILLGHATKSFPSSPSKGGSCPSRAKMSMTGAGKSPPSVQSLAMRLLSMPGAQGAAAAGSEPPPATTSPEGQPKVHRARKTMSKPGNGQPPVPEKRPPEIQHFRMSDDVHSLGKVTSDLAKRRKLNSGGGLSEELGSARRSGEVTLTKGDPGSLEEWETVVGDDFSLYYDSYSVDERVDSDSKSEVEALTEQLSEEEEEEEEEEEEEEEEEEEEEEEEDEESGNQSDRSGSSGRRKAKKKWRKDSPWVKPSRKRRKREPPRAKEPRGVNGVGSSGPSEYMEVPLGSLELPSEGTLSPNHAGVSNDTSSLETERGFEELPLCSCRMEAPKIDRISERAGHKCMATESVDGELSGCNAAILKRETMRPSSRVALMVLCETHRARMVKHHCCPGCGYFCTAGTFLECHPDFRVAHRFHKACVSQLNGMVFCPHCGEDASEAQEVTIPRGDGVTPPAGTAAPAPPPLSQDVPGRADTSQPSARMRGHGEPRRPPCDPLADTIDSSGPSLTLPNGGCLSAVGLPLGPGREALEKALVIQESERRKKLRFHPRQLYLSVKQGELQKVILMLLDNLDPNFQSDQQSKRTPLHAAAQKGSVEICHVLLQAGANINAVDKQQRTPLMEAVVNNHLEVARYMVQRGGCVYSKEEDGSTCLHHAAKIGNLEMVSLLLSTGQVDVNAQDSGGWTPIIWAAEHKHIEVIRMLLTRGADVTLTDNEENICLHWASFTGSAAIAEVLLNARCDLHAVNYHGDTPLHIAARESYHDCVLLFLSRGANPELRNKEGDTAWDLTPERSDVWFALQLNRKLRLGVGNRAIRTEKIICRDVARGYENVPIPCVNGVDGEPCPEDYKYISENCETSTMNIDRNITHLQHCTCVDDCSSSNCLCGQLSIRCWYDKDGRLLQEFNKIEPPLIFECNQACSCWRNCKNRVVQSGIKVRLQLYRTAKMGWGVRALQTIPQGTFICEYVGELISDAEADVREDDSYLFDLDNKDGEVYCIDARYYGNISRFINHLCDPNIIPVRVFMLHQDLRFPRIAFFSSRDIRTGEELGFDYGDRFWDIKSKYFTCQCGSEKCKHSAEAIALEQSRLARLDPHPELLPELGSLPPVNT
Outline: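 Quantitative HTS format: methyltransferase activity on a biotin-tagged H3K9 peptide is measured by AlphaScreen, using a rabbit anti-monomethyl-H3K9 antibody with streptavidin donor and anti-IgG acceptor beads. Final levels are 20 nM enzyme, 500 nM peptide, 20 uM SAM; 2 h RT.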
% is set by controls: 0 for no effect and ±100 for the full control effect; potency is the fitted concentration of half-maximal effect; tags give direction and shape of the fitted curve.
Note: nearly all actives have a fitted effect of over 75% in size.

SMILES | Potency | activity, negative = inhibition
COc1ccc(NC(=O)CN(C)C(=O)CSC(c2ccccc2)c2ccccc2)cc1 | inconclusive: 7.94 µM [inhibitor, full curve, poor fit] | –
Cc1cc(C)cc(N2C(=O)NC(=O)/C(=C\c3cccn3-c3ccccc3)C2=O)c1 | inconclusive: 1.78 µM [inhibitor, full curve, poor fit] | –
CNc1cc(N2CCN(C)CC2)ccc1[N+](=O)[O-] | inconclusive: 50.1 µM [inhibitor, partial curve, poor fit] | –
NC[C@@H]1O[C@H](O[C@H]2[C@@H](O)[C@H](O[C@@H]3[C@@H](O)[C@H](N)C[C@H](N)[C@H]3O[C@H]3O[C@H](CO)[C@@H](O)[C@H](O)[C@H]3N)O[C@@H]2CO)[C@H](N)[C@@H](O)[C@@H]1O | – | inactive: 9.1%
COc1ccc(-n2c(SCC(=O)c3c(N)n(C)c(=O)n(C)c3=O)nc3ccccc32)cc1 | inconclusive: 2.51 µM [inhibitor, partial curve, poor fit] | –
C[N+]1(C)CCOC(O)(c2ccc(-c3ccc(C4(O)C[N+](C)(C)CCO4)cc3)cc2)C1 (stereo not given) | active: 50.1 µM and active: 20 µM | –
COC(=O)C(=O)N1CC2(C)CNCC(C)(C1)C2=O | inconclusive: 89.1 µM [inhibitor, partial curve, poor fit] | –
Cc1c(N=Nc2c(O)n(C)c(=O)n(C)c2=O)c(=O)n(-c2ccccc2)n1C | inconclusive: 3.98 µM [inhibitor, partial curve, poor fit] | –
CCOC(=O)c1c(C)c(P(=S)(N2CCOCC2)N2CCOCC2)n(C)c1C | active: 6.31 µM | –
Cc1ccccc1N1C(=O)NC(=O)/C(=C\c2cnn(-c3ccccc3)c2)C1=O | inconclusive: 10 µM [inhibitor, partial curve, poor fit] | –
CN1CC(C(=O)c2ccc(Cl)cc2)C(c2ccccc2)C1 (stereo not given) | active: 44.7 µM | –
O=Cc1cn(Cc2ccc(F)cc2Cl)c2ccccc12 | – | inactive: 41.7%
CCN(CC)c1ccc(/C=C2\C(=O)NC(=O)N(Cc3ccco3)C2=O)cc1 | inconclusive: 25.1 µM [inhibitor, single point] | –
O=C1c2ccccc2C(=O)N1Cc1nc2ccccc2c(=O)n1-c1ccc(Br)cn1 | inconclusive: 89.1 µM [inhibitor, single point] | –
CCN(CC)C(=O)c1ccc(NC(=O)c2cccc(S(=O)(=O)N3CCN(C)CC3)c2)cc1 | inconclusive: 50.1 µM [inhibitor, partial curve, poor fit] | –
O=c1[nH]c(=S)n(C2CC2)c(O)c1/C=N/N1CCOCC1 | inconclusive: 39.8 µM [inhibitor, single point] | –
c1ccc2c(c1)OC[C@@H](C1=NCCN1)O2 | – | inactive: 8.4% [at 21.5 µM]
O=C1CC(=O)N(c2ccc(Cl)cc2Cl)C(=O)N1 | active: 44.7 µM | –
O=P(O)(O)Cc1c(Cl)cccc1Cl | inconclusive: 89.1 µM [inhibitor, single point] | –
CCN(CC)CCCN=C(C)c1c(O)n(-c2ccc(C)cc2)c(=O)[nH]c1=O | inconclusive: 25.1 µM [inhibitor, single point] | –
O=[N+]([O-])c1ccc(N2CCNCC2)cc1NCc1ccco1 | inconclusive: 20 µM [inhibitor, partial curve, poor fit] | –
O=C(Nc1cccc(F)c1)N1CCC2(CC1)CCN(C(=O)Oc1ccccc1)CC2 | – | inactive: -3.26% [at 12.7 µM]

SMILES | Potency | activity, negative = inhibition
O=c1[nH]c(=S)n(CCC2=CCCCC2)c(O)c1/C=N/N1CCOCC1 | inconclusive: 50.1 µM [inhibitor, partial curve, poor fit] | –
CC(C)(O/N=C(\C(=O)N[C@@H]1C(=O)N2C(C(=O)[O-])=C(C[n+]3ccccc3)CS[C@@H]12)c1csc(N)n1)C(=O)O | inconclusive: 8.91 µM [inhibitor, single point] | –
Cc1oc(/N=C/c2ccc3c(c2)OCO3)c(C#N)c1C | inconclusive: 39.8 µM [inhibitor, single point] | –
COc1ccc(C(C)=O)cc1CN1CC=C(c2ccccc2)CC1 | active: 12.6 µM | –
COc1cc(C)c(-c2nc(CN3C[C@@H]4C[C@@H](C3)c3cccc(=O)n3C4)c(C)o2)cc1C | inconclusive: 39.8 µM [inhibitor, partial curve] | –
COP(=O)(CC(=O)O)c1ccccc1 (stereo not given) | inconclusive: 3.98 µM [inhibitor, partial curve, poor fit] | –
COC(=O)[C@@H]1C[C@H](OC(C)=O)C(=O)[C@H]2[C@@]1(C)CC[C@H]1C(=O)O[C@H](c3ccoc3)C[C@]21C | inconclusive: 17.8 µM [inhibitor, partial curve, poor fit] | –
Cn1c(O)c(/C=N/c2ccccn2)c(=O)n(C)c1=O | inconclusive: 89.1 µM [inhibitor, single point] | –
Cc1nnc2ccc(N3CCN(C)CC3)nn12 | inconclusive: 89.1 µM [inhibitor, single point] | –
CC1CN(c2ccccc2)NC1=O (stereo not given) | active: 35.5 µM | –
Cc1ccc(N)c(C(=O)c2ccccc2)c1 | inconclusive: 11.2 µM [inhibitor, partial curve] | –
CCC1(c2ccccc2)C(=O)NC(=O)N(C(=O)c2ccccc2)C1=O (stereo not given) | – | inactive: -1.19% [at 12.7 µM]
O=C(NC1C(=O)NNC1c1ccc(Cl)cc1)c1ccc(F)cc1 (stereo not given) | inconclusive: 89.1 µM [inhibitor, single point] | –
O=C(c1ccncc1)N1CCC[C@@]2(CCN(Cc3nccs3)C2)C1 | – | inactive: -2.09% [at 12.7 µM]
O=C(COc1ccccc1/C=C1/NC(=O)NC1=O)Nc1ccccc1 | inconclusive: 39.8 µM [inhibitor, single point] | –
C[N+]1(C)[C@@H]2CC[C@H]1CC(OC(=O)[C@@H](CO)c1ccccc1)C2 (stereo not given in full) | active: 7.94 µM | –
CCC(C)n1c(O)c(C(c2ccccn2)c2c(O)n(C(C)CC)c(=S)[nH]c2=O)c(=O)[nH]c1=S (stereo not given) | active: 11.2 µM | –
CC(C)CCNC(=O)Cn1c(=O)oc2cc(S(=O)(=O)N3CCc4ccccc43)ccc21 | inconclusive: 89.1 µM [inhibitor, single point] | –
Cc1[nH]c2ccc(O)cc2c1CCN | active: 6.31 µM and active: 3.55 µM | –
CC(C)(C)OC(=O)c1c(N)n(Cc2ccco2)c2nc3ccccc3nc12 | inconclusive: 100 µM [inhibitor, single point] | –
CCCCCl | – | inactive: 28.5%
Clc1ccc(CNCCc2ccc3c(c2)OCO3)cc1 | active: 79.4 µM | –

SMILES | Potency | activity, negative = inhibition
Cc1ccc2c(c1)C1CN(C)CCC1N2C(=O)COc1ccc(N(C)C(=O)C(C)(C)C)cc1 (stereo not given) | inconclusive: 89.1 µM [inhibitor, single point] | –
COC(=O)NC(=C(Cl)Cl)P(=O)(c1ccccc1)c1ccccc1 | – | inactive: 2.27% [at 102 µM]
COc1ccc(N2CCN(C(CNC(=O)Oc3ccccc3)c3cccnc3)CC2)cc1 (stereo not given) | inconclusive: 25.1 µM [inhibitor, single point] | –
COc1cc(N2CCOCC2)ccc1C=C1C(=O)NC(=O)NC1=O | active: 79.4 µM | –
CCOc1ccccc1OCCCCN1CCCC1 | inconclusive: 28.2 µM [inhibitor, single point] | –
Cc1ccc(OCC(=O)N/N=C\c2ccc(O)c([N+](=O)[O-])c2)c([N+](=O)[O-])c1 | inconclusive: 56.2 µM [inhibitor, partial curve, poor fit] | –
COc1cc(Cn2c(N)c(C(=O)NCc3ccco3)c3nc4ccccc4nc32)cc(OC)c1OC | inconclusive: 7.08 µM [inhibitor, partial curve, poor fit] | –
O=C(c1ccccc1)c1ccccc1N=Cc1c(O)[nH]c(=O)[nH]c1=O | inconclusive: 79.4 µM [inhibitor, single point] | –
O=C1NC(=O)C(=Cc2ccc(-c3ccc(Cl)cc3)o2)C(=O)N1 | active: 6.31 µM | –
C=CCn1c(O)c(C(C)=Nc2cccc(C(=O)O)c2)c(=O)[nH]c1=O | active: 50.1 µM | –
C=CCN1CCc2cccc3c2C1Cc1ccc(O)c(O)c1-3 (stereo not given) | active: 1.41 µM and active: 355 nM | –
CC(Cc1ccccc1Sc1ccccc1O)N(C)C (stereo not given) | inconclusive: 89.1 µM [inhibitor, single point] | –
Cc1ccc(-n2c(O)c(C=NC3CCCCC3N)c(=O)[nH]c2=O)cc1C (stereo not given) | inconclusive: 1.12 µM [inhibitor, full curve, poor fit] | –
Cc1cccn2c(NCC3CCCO3)c(C(C)C)nc12 (stereo not given) | inconclusive: 31.6 µM [inhibitor, single point] | –
CC(C)N1CCN(Cc2cccc([N+](=O)[O-])c2)CC1 | active: 3.55 µM | –
COc1ccc(NC(c2ccccc2)P(=O)(Oc2ccccc2)Oc2ccccc2)cc1 (stereo not given) | active: 25.1 µM | –
C=C(CC1CC(O)[C@]2(C)OC3CC4OC5C[C@]6(C)O[C@]7(C)CCC8OC9C[C@]%10(C)OC%11C(C)=CC(=O)OC%11CC%10OC9C[C@@H](C)C8OC7CC6O[C@]5(C)C/C=C\C4OC3CC2O1)C(=O)O (stereo not given in full) | – | inconclusive: -72.9% [inhibitor]
Cc1cc(Cl)ccc1OCC(=O)N1CCN(C)CC1 | inconclusive: 89.1 µM [inhibitor, single point] | –
Cc1ccsc1C(=O)C1CCCN(Cc2cnc(N3CCOCC3)s2)C1 (stereo not given) | inconclusive: 2.82 µM [inhibitor, partial curve, poor fit] | –
O=C(Nc1cccc2ncccc12)c1ccccc1Cl | active: 79.4 µM | –
Cc1ccc(N2C(=O)NC(=O)/C(=C\c3ccsc3)C2=O)cc1C | inconclusive: 31.6 µM [inhibitor, single point] | –
